A short description of assay [1]: Inhibition of HDAC assessed as induction of p21 promoter expression by cell-based assay.
Assay [2] in a line: Inhibition of HDAC.
In assay [3] the target is T1, Histone deacetylase 4 (Homo sapiens, UniProt P56524). The assay is described as follows: Inhibition of HDAC4 by fluorimetric assay in presence of DTT.
Assay [4] deals with T2, Protein deacetylase HDAC6 (Homo sapiens, UniProt Q9UBN7).
T2 sequence (Q9UBN7 whole entry): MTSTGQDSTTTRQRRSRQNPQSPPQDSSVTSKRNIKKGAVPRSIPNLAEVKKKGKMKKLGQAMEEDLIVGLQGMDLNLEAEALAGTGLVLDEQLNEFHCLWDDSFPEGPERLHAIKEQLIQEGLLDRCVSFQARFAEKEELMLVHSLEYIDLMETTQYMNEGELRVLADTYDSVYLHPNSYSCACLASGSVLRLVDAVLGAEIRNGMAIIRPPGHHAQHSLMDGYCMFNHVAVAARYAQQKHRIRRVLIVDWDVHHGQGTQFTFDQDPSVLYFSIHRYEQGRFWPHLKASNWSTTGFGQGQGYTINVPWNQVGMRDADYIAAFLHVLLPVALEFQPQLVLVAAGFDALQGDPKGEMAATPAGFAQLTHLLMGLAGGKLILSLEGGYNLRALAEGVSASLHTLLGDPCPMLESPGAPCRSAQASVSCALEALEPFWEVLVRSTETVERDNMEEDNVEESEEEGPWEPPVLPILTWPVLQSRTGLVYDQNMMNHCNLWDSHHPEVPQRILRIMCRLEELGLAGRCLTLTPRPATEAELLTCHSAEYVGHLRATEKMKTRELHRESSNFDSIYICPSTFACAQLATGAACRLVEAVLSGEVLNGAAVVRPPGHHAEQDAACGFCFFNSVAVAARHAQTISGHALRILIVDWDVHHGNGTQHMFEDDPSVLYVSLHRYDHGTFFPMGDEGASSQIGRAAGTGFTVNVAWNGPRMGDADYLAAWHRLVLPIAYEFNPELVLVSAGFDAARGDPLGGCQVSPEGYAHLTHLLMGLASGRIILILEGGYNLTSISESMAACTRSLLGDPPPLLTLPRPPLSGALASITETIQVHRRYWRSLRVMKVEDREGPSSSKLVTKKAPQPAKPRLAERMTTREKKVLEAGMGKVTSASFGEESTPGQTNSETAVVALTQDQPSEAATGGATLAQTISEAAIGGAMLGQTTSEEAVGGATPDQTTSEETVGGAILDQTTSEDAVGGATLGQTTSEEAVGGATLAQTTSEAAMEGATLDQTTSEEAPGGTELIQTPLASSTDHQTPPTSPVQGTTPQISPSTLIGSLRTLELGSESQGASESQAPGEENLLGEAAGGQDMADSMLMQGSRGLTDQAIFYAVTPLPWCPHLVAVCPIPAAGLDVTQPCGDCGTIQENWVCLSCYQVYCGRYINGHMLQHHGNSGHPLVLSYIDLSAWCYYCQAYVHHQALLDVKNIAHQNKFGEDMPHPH
As to the kind of experiment: Inhibition of HDAC6 by fluorimetric assay in presence of DTT.

The target of assay [5] is T1, Histone deacetylase 4. As to the kind of experiment: Inhibition of HDAC4 by fluorimetric assay.
Assay [6] concerns the target T3, Histone deacetylase 1 (Homo sapiens, UniProt Q13547). As to the kind of experiment: Inhibition of HDAC1 by fluorimetric assay.
T3 sequence (Q13547 whole entry): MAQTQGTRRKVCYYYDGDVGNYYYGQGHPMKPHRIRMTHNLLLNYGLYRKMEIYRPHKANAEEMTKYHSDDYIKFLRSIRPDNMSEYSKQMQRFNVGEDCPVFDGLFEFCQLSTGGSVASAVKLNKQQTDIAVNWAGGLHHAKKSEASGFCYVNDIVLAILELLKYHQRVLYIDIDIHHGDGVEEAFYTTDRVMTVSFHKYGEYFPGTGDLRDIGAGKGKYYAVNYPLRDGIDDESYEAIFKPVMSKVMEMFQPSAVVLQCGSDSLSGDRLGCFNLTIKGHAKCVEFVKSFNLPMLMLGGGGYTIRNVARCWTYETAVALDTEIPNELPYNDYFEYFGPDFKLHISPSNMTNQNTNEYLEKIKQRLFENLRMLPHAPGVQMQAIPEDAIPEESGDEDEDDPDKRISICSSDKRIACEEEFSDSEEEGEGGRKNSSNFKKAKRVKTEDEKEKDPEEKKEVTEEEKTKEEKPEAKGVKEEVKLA
Assay [7] deals with T2, Protein deacetylase HDAC6. The assay is described as follows: Inhibition of HDAC6 by fluorimetric assay.
Assay [8] concerns the target T3, Histone deacetylase 1. As to the kind of experiment: Inhibition of HDAC1 by fluorimetric assay in presence of DTT.

The record followed here is ChEMBL document CHEMBL2157995, “Cyclic tetrapeptides with thioacetate tails or intramolecular disulfide bridge as potent inhibitors of histone deacetylases” (Bioorg Med Chem Lett, 2012).

For orientation: IC50 means the point on the concentration scale where inhibition reaches its midpoint.

T1 sequence (P56524 whole entry): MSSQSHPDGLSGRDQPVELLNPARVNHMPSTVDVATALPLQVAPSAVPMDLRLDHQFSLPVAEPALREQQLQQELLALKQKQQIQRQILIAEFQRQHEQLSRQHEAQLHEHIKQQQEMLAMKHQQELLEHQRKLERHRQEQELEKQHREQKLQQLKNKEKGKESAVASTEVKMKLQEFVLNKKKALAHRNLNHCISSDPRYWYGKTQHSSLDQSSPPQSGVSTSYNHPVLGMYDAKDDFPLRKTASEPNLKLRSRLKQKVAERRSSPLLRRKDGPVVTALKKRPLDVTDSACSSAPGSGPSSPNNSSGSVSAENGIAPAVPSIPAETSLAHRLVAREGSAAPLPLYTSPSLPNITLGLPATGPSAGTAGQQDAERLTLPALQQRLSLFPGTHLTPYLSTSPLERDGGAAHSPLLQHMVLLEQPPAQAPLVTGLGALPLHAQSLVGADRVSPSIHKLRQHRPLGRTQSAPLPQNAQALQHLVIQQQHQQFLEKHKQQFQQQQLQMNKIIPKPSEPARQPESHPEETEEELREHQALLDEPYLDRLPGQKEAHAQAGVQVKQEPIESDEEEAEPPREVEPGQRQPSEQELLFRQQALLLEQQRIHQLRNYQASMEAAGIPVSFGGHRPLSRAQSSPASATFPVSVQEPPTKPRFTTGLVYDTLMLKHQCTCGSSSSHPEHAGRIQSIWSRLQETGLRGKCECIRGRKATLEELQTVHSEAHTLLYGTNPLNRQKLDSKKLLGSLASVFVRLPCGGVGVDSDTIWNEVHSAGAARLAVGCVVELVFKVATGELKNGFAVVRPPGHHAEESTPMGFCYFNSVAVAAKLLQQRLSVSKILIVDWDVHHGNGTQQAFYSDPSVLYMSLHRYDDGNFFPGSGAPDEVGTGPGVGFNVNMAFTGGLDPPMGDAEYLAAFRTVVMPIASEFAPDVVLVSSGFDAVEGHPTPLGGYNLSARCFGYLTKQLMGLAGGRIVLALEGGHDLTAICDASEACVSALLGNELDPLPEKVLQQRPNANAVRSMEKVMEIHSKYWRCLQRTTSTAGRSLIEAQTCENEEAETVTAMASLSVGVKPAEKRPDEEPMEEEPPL

In the case of `C/C=C1\NC(=O)[C@H]2CSSCC/C=C/[C@H](CC(=O)N[C@H](C(C)C)C(=O)N2)OC(=O)[C@H](C(C)C)NC1=O`, the EC1000 in assay [1] is 0.0031 µmol/L.

For `CC1(C)NC(=O)[C@H](CCCCCC(=O)[C@H]2CO2)NC(=O)[C@H]2CCCN2C(=O)[C@H](Cc2ccccc2)NC1=O` [CHLAMYDOCIN], half-maximal inhibition in assay [2] (IC50) required 0.15 nM.

Take `CC(=O)SCCCCC[C@@H]1NC(=O)[C@H]2CCCN2C(=O)[C@H](Cc2ccccc2)NC(=O)[C@@H](CCOCCSC(C)=O)NC1=O`: the IC50 on Histone deacetylase 4 [3] was 99 nM; in assay [4] it was 6500 nM; on Histone deacetylase 4 [5], 990 nM; on Histone deacetylase 1 [6], 2400 nM; in assay [7], more than 100000 nM; at Histone deacetylase 1 [8] it was 190 nM. Besides, in assay [1], the EC1000 amounted to 0.16 µmol/L.

Regarding `CC(=O)SCCCCC[C@@H]1NC(=O)[C@H]2CCCN2C(=O)[C@H](CCOCCSC(C)=O)NC(=O)C(C)(C)NC1=O`, the IC50 on Histone deacetylase 4 [3] is 120 nM; in assay [4] it was 2000 nM; on Histone deacetylase 4 [5] it was 900 nM; at Histone deacetylase 1 [6], 4200 nM; in assay [7] it was 11000 nM; on Histone deacetylase 1 [8], 210 nM. In addition, the EC1000 in assay [1] worked out at 0.036 µmol/L.

Take `O=C1N[C@@H]2CCOCCSSCCCCC[C@@H]1NC(=O)[C@H]1CCCN1C(=O)[C@H](Cc1ccccc1)NC2=O`: the IC50 was 5.9 nM at Histone deacetylase 4 [3]; 330 nM in assay [4]; more than 100000 nM against Histone deacetylase 4 [5]; more than 100000 nM against Histone deacetylase 1 [6]; more than 100000 nM in assay [7]; 10 nM on Histone deacetylase 1 [8]. For the same molecule, in assay [1], the EC1000 came to 0.15 µmol/L.

On to `CC(=O)SCCCCC[C@@H]1NC(=O)[C@H]2CCCN2C(=O)[C@H](CCCCCSC(C)=O)NC(=O)C(C)(C)NC1=O`, for which the IC50 on Histone deacetylase 4 [3] is 100 nM; in assay [4], 1700 nM; at Histone deacetylase 4 [5], 1200 nM; against Histone deacetylase 1 [6] it was 1800 nM; in assay [7] it was 12000 nM; at Histone deacetylase 1 [8] it was 150 nM. Further, the EC1000 in assay [1] was 0.017 µmol/L.

As for `CC(/C=C/C(=O)NO)=C\[C@@H](C)C(=O)c1ccc(N(C)C)cc1`, the EC1000 in assay [1] worked out at 0.02 µmol/L.
